Laboratory results taken from the supplement of paper PMC4604168 (melanoma cell lines).
The list shows a part of the results. Single values are uncertain, as repeats are few or missing.

These compounds were tested on RPMI7951 (assay: cell count relative to DMSO control; melanoma cells; higher = more viable cells). Settings: library dose: standard library concentration; 72 h.
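Further: cells treated in 1,536-well plates, then fixed and DAPI-stained, with nuclei counted from automated high-throughput microscope images.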

**Q.** How did the cell count turn out when `CN(c1ncccc1CNc1nc(Nc2ccc3c(c2)CC(=O)N3)ncc1C(F)(F)F)S(C)(=O)=O` + C[C@@H]1CCN(C(=O)CC#N)C[C@@H]1N(C)c1ncnc2[nH]ccc12 [CP690550] (first compound 0.4 µM, partner dose 5 µM) was run?
**A.** 67.4%

**Q.** With `CCCS(=O)(=O)Nc1ccc(F)c(C(=O)c2c[nH]c3ncc(Cl)cc23)c1F` + Oc1cc(-c2nc(-c3ccccc3)[nH]c2-c2ccncc2)ccc1Cl [L779450] (first compound 0.4 µM, partner dose 1 µM) as the compound, how does the cell count read?
**A.** 94.3%

**Q.** For `C=C(c1ccc(C(=O)O)cc1)c1cc2c(cc1C)C(C)(C)CCC2(C)C` [Bexarotene] + Oc1nc(-c2ccc(C(F)(F)F)cc2)nc2c1CSCC2 [XAV939] (first compound 10 µM, partner dose 10 µM), which cell count is on record?
**A.** 69.6%

**Q.** Which cell count does the source give for `C=C(c1ccc(C(=O)O)cc1)c1cc2c(cc1C)C(C)(C)CCC2(C)C` [Bexarotene] + CCCS(=O)(=O)Nc1ccc(F)c(C(=O)c2c[nH]c3ncc(Cl)cc23)c1F [PLX4720] (first compound 10 µM, partner dose 0.4 µM) here?
**A.** 80%

**Q.** With `CN(c1ncccc1CNc1nc(Nc2ccc3c(c2)CC(=O)N3)ncc1C(F)(F)F)S(C)(=O)=O` + Cc1cc(N2CCOCC2)cc2[nH]c(-c3c(NC[C@@H](O)c4cccc(Cl)c4)cc[nH]c3=O)nc12 [BMS536924] (first compound 0.4 µM, partner dose 1 µM) as the compound, how does the cell count read?
**A.** 73.9%

**Q.** Which cell count does the source give for `CS(=O)(=O)c1ccc(C(=O)Nc2ccc(Cl)c(-c3ccccn3)c2)c(Cl)c1` [vismodegib] + O=C(CCCCCCC(=O)Nc1ccccc1)NO [vorinostat] (first compound 5 µM, partner dose 0.4 µM) here?
**A.** 60%

**Q.** With `NC1(c2ccc(-c3nc4ccn5c(=O)[nH]nc5c4cc3-c3ccccc3)cc2)CCC1` + Nc1cccc2c1CN(C1CCC(=O)NC1=O)C2=O [lenalidomide] (first compound 2 µM, partner dose 5 µM) as the compound, how does the cell count read?
**A.** 74.1%

**Q.** Which cell count does the source give for `CS(=O)(=O)c1ccc(C(=O)Nc2ccc(Cl)c(-c3ccccn3)c2)c(Cl)c1` [vismodegib] + COc1ccc(-c2ccc3c(N4CCOCC4)nc(N4C[C@@H](C)O[C@@H](C)C4)nc3n2)cc1CO [KU0063794] (first compound 5 µM, partner dose 0.1 µM) here?
**A.** 95.6%

**Q.** For `CS(=O)(=O)c1ccc(C(=O)Nc2ccc(Cl)c(-c3ccccn3)c2)c(Cl)c1` [vismodegib] + C=CCn1c(=O)c2cnc(Nc3ccc(N4CCN(C)CC4)cc3)nc2n1-c1cccc(C(C)(C)O)n1 [MK1775] (first compound 5 µM, partner dose 0.1 µM), which cell count is on record?
**A.** 55.2%

**Q.** How did the cell count turn out when `NC1(c2ccc(-c3nc4ccn5c(=O)[nH]nc5c4cc3-c3ccccc3)cc2)CCC1` + Cn1cc(/C=C2\C(=O)Nc3cccnc32)c2ccccc21 [GW441756] (first compound 2 µM, partner dose 2 µM) was run?
**A.** 93.4%

**Q.** How did the cell count turn out when `C=C(c1ccc(C(=O)O)cc1)c1cc2c(cc1C)C(C)(C)CCC2(C)C` [Bexarotene] + O=C1NC(=O)/C(=C/c2ccc(-c3ccc(F)cc3O)o2)S1 [AS252424] (first compound 10 µM, partner dose 5 µM) was run?
**A.** 85.4%

**Q.** `CN(c1ncccc1CNc1nc(Nc2ccc3c(c2)CC(=O)N3)ncc1C(F)(F)F)S(C)(=O)=O` + Cn1c(Nc2ccc(C(F)(F)F)cc2)nc2cc(Oc3ccnc(-c4ncc(C(F)(F)F)[nH]4)c3)ccc21 [CHIR265] (first compound 0.4 µM, partner dose 0.4 µM) was tested. Which cell count did it give?
**A.** 38.2%

**Q.** For `CS(=O)(=O)c1ccc(C(=O)Nc2ccc(Cl)c(-c3ccccn3)c2)c(Cl)c1` [vismodegib] + Cn1nnc2c(C(N)=O)ncn2c1=O [temozolomide] (first compound 5 µM, partner dose 10 µM), which cell count is on record?
**A.** 120%

**Q.** For `CCCS(=O)(=O)Nc1ccc(F)c(C(=O)c2c[nH]c3ncc(Cl)cc23)c1F` + Cn1nnc2c(C(N)=O)ncn2c1=O [temozolomide] (first compound 0.4 µM, partner dose 10 µM), which cell count is on record?
**A.** 131%

**Q.** How did the cell count turn out when `C=C(c1ccc(C(=O)O)cc1)c1cc2c(cc1C)C(C)(C)CCC2(C)C` [Bexarotene] + C#Cc1cccc(Nc2ncnc3cc(OCCOC)c(OCCOC)cc23)c1 [erlotinib] (first compound 10 µM, partner dose 4 µM) was run?
**A.** 56.4%

**Q.** For `CS(=O)(=O)c1ccc(C(=O)Nc2ccc(Cl)c(-c3ccccn3)c2)c(Cl)c1` [vismodegib] + CCCCCCCCCCCC1=C(O)C(=O)C=C(O)C1=O [Embelin] (first compound 5 µM, partner dose 6 µM), which cell count is on record?
**A.** 95.7%

**Q.** Which cell count does the source give for `CCCS(=O)(=O)Nc1ccc(F)c(C(=O)c2c[nH]c3ncc(Cl)cc23)c1F` + COc1ccc(COc2ccc(Cc3cnc(N)nc3N)cc2OC)cc1 [GW2580] (first compound 0.4 µM, partner dose 5 µM) here?
**A.** 85.3%

**Q.** With `CN(c1ncccc1CNc1nc(Nc2ccc3c(c2)CC(=O)N3)ncc1C(F)(F)F)S(C)(=O)=O` + CN(NC(=O)CC(=O)NN(C)C(=S)c1ccccc1)C(=S)c1ccccc1 [STA4783] (first compound 0.4 µM, partner dose 0.03 µM) as the compound, how does the cell count read?
**A.** 60.1%

**Q.** How did the cell count turn out when `C=C(c1ccc(C(=O)O)cc1)c1cc2c(cc1C)C(C)(C)CCC2(C)C` [Bexarotene] + Cc1cc(N2CCOCC2)cc2[nH]c(-c3c(NC[C@@H](O)c4cccc(Cl)c4)cc[nH]c3=O)nc12 [BMS536924] (first compound 10 µM, partner dose 1 µM) was run?
**A.** 96.2%

**Q.** With `CN(c1ncccc1CNc1nc(Nc2ccc3c(c2)CC(=O)N3)ncc1C(F)(F)F)S(C)(=O)=O` + C#Cc1cccc(Nc2ncnc3cc(OCCOC)c(OCCOC)cc23)c1 [erlotinib] (first compound 0.4 µM, partner dose 4 µM) as the compound, how does the cell count read?
**A.** 52.4%

**Q.** How did the cell count turn out when `C=C(c1ccc(C(=O)O)cc1)c1cc2c(cc1C)C(C)(C)CCC2(C)C` [Bexarotene] + CN(NC(=O)CC(=O)NN(C)C(=S)c1ccccc1)C(=S)c1ccccc1 [STA4783] (first compound 10 µM, partner dose 0.03 µM) was run?
**A.** 65.4%

**Q.** With `NC1(c2ccc(-c3nc4ccn5c(=O)[nH]nc5c4cc3-c3ccccc3)cc2)CCC1` + O=C(O)C(=O)Nc1sc2c(c1C(=O)O)CCNC2 [TCS401] (first compound 2 µM, partner dose 8.33333 µM) as the compound, how does the cell count read?
**A.** 77.1%

**Q.** With `NC1(c2ccc(-c3nc4ccn5c(=O)[nH]nc5c4cc3-c3ccccc3)cc2)CCC1` + O=C(Nc1cccc(Cl)c1)Nc1ncc(CCNc2ncnc3ccsc23)s1 [SNS314] (first compound 2 µM, partner dose 0.004 µM) as the compound, how does the cell count read?
**A.** 51.6%

**Q.** `CCCS(=O)(=O)Nc1ccc(F)c(C(=O)c2c[nH]c3ncc(Cl)cc23)c1F` + CC(=O)c1c(C)c2cnc(Nc3ccc(N4CCNCC4)cn3)nc2n(C2CCCC2)c1=O [palbociclib] (first compound 0.4 µM, partner dose 0.2 µM) was tested. Which cell count did it give?
**A.** 65.3%

**Q.** For `CS(=O)(=O)c1ccc(C(=O)Nc2ccc(Cl)c(-c3ccccn3)c2)c(Cl)c1` [vismodegib] + Cc1cc(N2CCOCC2)cc2[nH]c(-c3c(NC[C@@H](O)c4cccc(Cl)c4)cc[nH]c3=O)nc12 [BMS536924] (first compound 5 µM, partner dose 1 µM), which cell count is on record?
**A.** 109%

**Q.** `CCCS(=O)(=O)Nc1ccc(F)c(C(=O)c2c[nH]c3ncc(Cl)cc23)c1F` + CCCCCCCCCCCC1=C(O)C(=O)C=C(O)C1=O [Embelin] (first compound 0.4 µM, partner dose 6 µM) was tested. Which cell count did it give?
**A.** 102%

**Q.** With `NC1(c2ccc(-c3nc4ccn5c(=O)[nH]nc5c4cc3-c3ccccc3)cc2)CCC1` + CC(C)(C)c1cnc(CSc2cnc(NC(=O)C3CCNCC3)s2)o1 [SNS-032] (first compound 2 µM, partner dose 0.05 µM) as the compound, how does the cell count read?
**A.** 37.9%

**Q.** How did the cell count turn out when `C=C(c1ccc(C(=O)O)cc1)c1cc2c(cc1C)C(C)(C)CCC2(C)C` [Bexarotene] + CC(=O)c1c(C)c2cnc(Nc3ccc(N4CCNCC4)cn3)nc2n(C2CCCC2)c1=O [palbociclib] (first compound 10 µM, partner dose 0.2 µM) was run?
**A.** 59.1%

**Q.** Which cell count does the source give for `CN(c1ncccc1CNc1nc(Nc2ccc3c(c2)CC(=O)N3)ncc1C(F)(F)F)S(C)(=O)=O` + O=C(Nc1ccccc1)c1cc([N+](=O)[O-])ccc1Cl [GW9662] (first compound 0.4 µM, partner dose 10 µM) here?
**A.** 66.6%

**Q.** For `CCCS(=O)(=O)Nc1ccc(F)c(C(=O)c2c[nH]c3ncc(Cl)cc23)c1F` + Cc1nc(Nc2ncc(C(=O)Nc3c(C)cccc3Cl)s2)cc(N2CCN(CCO)CC2)n1 [dasatanib] (first compound 0.4 µM, partner dose 0.02 µM), which cell count is on record?
**A.** 59.1%

**Q.** For `CCCS(=O)(=O)Nc1ccc(F)c(C(=O)c2c[nH]c3ncc(Cl)cc23)c1F` + C#Cc1cccc(Nc2ncnc3cc(OCCOC)c(OCCOC)cc23)c1 [erlotinib] (first compound 0.4 µM, partner dose 4 µM), which cell count is on record?
**A.** 72.7%

**Q.** How did the cell count turn out when `C=C(c1ccc(C(=O)O)cc1)c1cc2c(cc1C)C(C)(C)CCC2(C)C` [Bexarotene] + Nc1nc(F)nc2c1ncn2[C@@H]1O[C@H](CO)[C@@H](O)[C@@H]1O [fludarabine] (first compound 10 µM, partner dose 1 µM) was run?
**A.** 56.6%

**Q.** For `CCCS(=O)(=O)Nc1ccc(F)c(C(=O)c2c[nH]c3ncc(Cl)cc23)c1F` + O=C1NC(=O)/C(=C/c2ccc(-c3ccc(F)cc3O)o2)S1 [AS252424] (first compound 0.4 µM, partner dose 5 µM), which cell count is on record?
**A.** 104%
